Assay results taken from the supplement of paper PMC11876631.
Positions count from the first letter of the chain named. Names and notes keep the numbering of the source. ± gives the standard deviation of the averaged measurements. Laboratory Escherichia coli strains with one amino-acid change in an essential protein, pooled on minimal glucose agar with carbenicillin or gentamicin at twice the control MIC (plus kanamycin and chloramphenicol for the plasmids), 48 h. Fold change of barcode share against drug-free plates; higher = less susceptible. Active = above 20 in both replicates (the paper's putatively resistant). '<' = one read or none on drug, '>' = one read or none on a drug-free plate. Shares are relative, so most strains fall below 1 when a few take over. Listed are strains with at least 15 reads on both drug-free plates, and hits; most hits rest on fewer reference reads. Replicate rank correlation about 0.5. Edits are read from barcodes.

B1: aroB I125A (protein)
chain: MERIVVTLGERSYPITIASGLFNEPASFLPLKSGEQVMLVTNETLAPLYLDKVRGVLEQAGVNVDSVILPDGEQYKSLAVLDTVFTALLQKPHGRDTTLVALGGGVVGDLTGFAAASYQRGVRFAQVPTTLLSQVDSSVGGKTAVNHPLGKNMIGAFYQPASVVVDLDCLKTLPPRELASGLAEVIKYGIILDGAFFNWLEENLDALLRLDGPAMAYCIRRCCELKAEVVAADERETGLRALLNLGHTFGHAIEAEMGYGNWLHGEAVAAGMVMAARTSERLGQFSSAETQRIITLLKRAGLPVNGPREMSAQAYLPHMLRDKKVLAGEMRLILPLAIGKSEVRSGVSHELVLNAIADCQSA
B2: aroB I125Q (protein)
chain: B1 chain with A125Q
B3: aroB M274A (protein)
chain: B1 chain with A125I, M274A
B4: aroB I125W (protein)
chain: B1 chain with A125W
B5: leuD I25A (protein)
chain: MAEKFIKHTGLVVPLDAANVDTDAAIPKQFLQKVTRTGFGAHLFNDWRFLDEKGQQPNPDFVLNFPQYQGASILLARENFGCGSSREHAPWALTDYGFKVVIAPSFADIFYGNSFNNQLLPVKLSDAEVDELFALVKANPGIHFDVDLEAQEVKAGEKTYRFTIDAFRRHCMMNGLDSIGLTLQHDDAIAAYEAKQPAFMN
B6: leuD F144Q (protein)
chain: B5 chain with A25I, F144Q
B7: leuD F144W (protein)
chain: B5 chain with A25I, F144W
B8: leuD I73A (protein)
chain: B5 chain with A25I, I73A
B9: leuD F144A (protein)
chain: B5 chain with A25I, F144A
B10: leuD I73Q (protein)
chain: B5 chain with A25I, I73Q
B11: leuD I25Q (protein)
chain: B5 chain with A25Q
B12: leuD I73W (protein)
chain: B5 chain with A25I, I73W
B13: leuD F144P (protein)
chain: B5 chain with A25I, F144P
B14: ligA V324A (protein)
chain: MESIEQQLTELRTTLRHHEYLYHVMDAPEIPDAEYDRLMRELRELETKHPELITPDSPTQRVGAAPLAAFSQIRHEVPMLSLDNVFDEESFLAFNKRVQDRLKNNEKVTWCCELKLDGLAVSILYENGVLVSAATRGDGTTGEDITSNVRTIRAIPLKLHGENIPARLEVRGEVFLPQAGFEKINEDARRTGGKVFANPRNAAAGSLRQLDPRITAKRPLTFFCYGVGVLEGGELPDTHLGRLLQFKKWGLPVSDRVTLCESAEEVLAFYHKVEEDRPTLGFDIDGVVIKVNSLAQQEQLGFVARAPRWAVAFKFPAQEQMTFARDVEFQVGRTGAITPVARLEPVHVAGVLVSNATLHNADEIERLGLRIGDKVVIRRAGDVIPQVVNVVLSERPEDTREVVFPTHCPVCGSDVERVEGEAVARCTGGLICGAQRKESLKHFVSRRAMDVDGMGDKIIDQLVEKEYVHTPADLFKLTAGKLTGLERMGPKSAQNVVNALEKAKETTFARFLYALGIREVGEATAAGLAAYFGTLEALEAASIEELQKVPDVGIVVASHVHNFFAEESNRNVISELLAEGVHWPAPIVINAEEIDSPFAGKTVVLTGSLSQMSRDDAKARLVELGAKVAGSVSKKTDLVIAGEAAGSKLAKAQELGIEVIDEAEMLRLLGS
B15: ligA V556A (protein)
chain: B14 chain with A324V, V556A

Molecular target: Escherichia coli (laboratory strain)
Experiment: barcode share on antibiotic plates over drug-free plates; higher = less susceptible
Settings: antibiotic: carbenicillin; 2× MIC (3.1 µg/mL)
Method: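 A pool of E. coli strains, each edited to carry one amino-acid change in an essential protein, was grown for 48 h on minimal glucose agar with or without antibiotic; strain barcodes were sequenced; mean of two replicates.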

| Protein | fold change of barcode share |
| --- | --- |
| B1 | > 24.6 [active] |
| B2 | 2.02 ± 1.1 |
| B3 | 0.481 ± 0.088 |
| B4 | > 34.1 [active] |
| B5 | 0.771 ± 0.018 |
| B6 | 0.923 ± 0.27 |
| B7 | 0.57 ± 0.042 |
| B8 | 0.402 ± 0.092 |
| B9 | 0.604 ± 0.045 |
| B10 | 0.734 ± 0.4 |
| B11 | 0.781 ± 0.46 |
| B12 | 0.519 ± 0.24 |
| B13 | 1.04 ± 0.28 |
| B14 | 0.282 ± 0.063 |
| B15 | 0.182 ± 0.041 |

Same assay, conditions: antibiotic: gentamicin; 2× MIC (MIC 0.45 µg/mL)

| Protein | fold change of barcode share |
| --- | --- |
| B3 | 0.0137 ± 0.0096 |
| B5 | 0.0145 ± 0.0082 |
| B6 | < 0.00558 |
| B7 | 0.0104 ± 0.0053 |
| B8 | < 0.00928 |
| B9 | 0.00303 ± 0.00075 |
| B10 | < 0.0211 |
| B11 | 0.0332 ± 0.03 |
| B12 | 0.015 ± 0.011 |
| B13 | 0.0151 ± 0.0077 |
| B14 | < 0.00557 |
| B15 | < 0.0126 |
